From PubChem BioAssay AID624296 (National Center for Advancing Translational Sciences (NCATS), 2012)
About 9,900 (2.8%) of roughly 350,000 compounds were called active. Inconclusive means that the source gave no clear call. Such entries were picked first, then a sample of the others. Calls come from the whole dose curve; as a rule, active = well fitted activation curve with a large enough effect; inconclusive = small, poorly fitted or top-dose-only effect; inactive = no such curve, though single readings can be large or run the other way. No potency is given beside an inconclusive call; the fits are too rough.

Test: A quantitative high throughput screen for small molecules that induce DNA re-replication in MCF 10a normal breast cells. For activity, positive = re-replication: % of control where 0% means no effect. Note: nearly all actives have a fitted effect of over 50% in size.
Conditions: MCF 10A DNA re-replication, Hoechst nuclear intensity, 48 h; activity, positive = re-replication: at 46.1 µM (top of the series)
Potency is the fitted concentration of half-maximal effect; tags give direction and shape of the fitted curve.

**Q.** For O=C(Cc1ccc(Cl)c(Cl)c1)NCC1(N2CCOCC2)CCCCC1, which Potency is on record?
**A.** Its Potency is inconclusive [activator, single point].

**Q.** For Cc1ccc(C=C2C(Cl)=C(Cl)C(Cl)=C2Cl)cc1, which Potency is on record?
**A.** Its Potency is inconclusive [activator, single point].

**Q.** With Cc1ccccc1N1C(=O)NC(=O)/C(=C\c2cnn(-c3ccccc3)c2)C1=O as the compound, how does the Potency read?
**A.** Its Potency is inconclusive [activator, single point].

**Q.** With Cc1ccc(S(=O)(=O)N2CCCCC2)cc1NC(=O)CN1CC=C(c2ccccc2)CC1 as the compound, how does the Potency read?
**A.** The Potency was inconclusive [activator, partial curve, poor fit].

**Q.** For Cc1cc(C)cc(N2C(=O)NC(=O)/C(=C\c3cccn3-c3ccccc3)C2=O)c1, which Potency is on record?
**A.** Its Potency is inconclusive [activator, single point].

**Q.** With O=C(c1ccco1)N1CCN(C(=O)c2ccc(COc3ccc(Cl)cc3Cl)o2)CC1 as the compound, how does the Potency read?
**A.** Its Potency is active: 20.6 µM.

**Q.** With Cn1c(=O)oc2cc(S(=O)(=O)N3CCC(C(=O)N4CCN(c5ccc(F)cc5)CC4)CC3)ccc21 as the compound, how does the Potency read?
**A.** The Potency was inconclusive [activator, single point].

**Q.** Which Potency does the source give for COc1cc(OC)c(/C=C2\C(=O)Nc3ccccc32)c(OC)c1 here?
**A.** Its Potency is active: 5.17 µM.

**Q.** For Cc1ccc(-c2cc(NC(=O)c3ccccc3)on2)cc1, which Potency is on record?
**A.** Its Potency is inconclusive [activator, partial curve, poor fit].

**Q.** Which Potency does the source give for COc1ccc(C(=O)Nc2ccccc2-c2nnn(CC(=O)Nc3ccc4c(c3)OCCO4)n2)cc1 here?
**A.** The Potency was active: 16.4 µM.

**Q.** For CNc1cc(N2CCN(C)CC2)ccc1[N+](=O)[O-], which “activity, positive = re-replication” value is on record?
**A.** Its value is inactive: 17.3%.

**Q.** With CC1Cc2ccccc2N1Cc1cccc(S(=O)(=O)N(C)C)c1 (stereo not drawn) as the compound, how does the Potency read?
**A.** The Potency was inconclusive [activator, partial curve, poor fit].

**Q.** For Cc1ccc(CN2C(=O)NC(=O)C3(Cc4c(nc5ccccn5c4=O)N4CCCCCC43)C2=O)cc1 (stereo not drawn), which Potency is on record?
**A.** The Potency was inconclusive [activator, partial curve, poor fit].

**Q.** Which Potency does the source give for O=C1c2ccccc2C(=O)C1C(=O)C(c1ccccc1)c1ccccc1 here?
**A.** The Potency was active: 23.7 µM.

**Q.** For CCOCCSc1nc2c(c(-c3cccs3)c1C#N)CC/C2=C/c1cccs1, which Potency is on record?
**A.** Its Potency is inconclusive [activator, full curve, poor fit].

**Q.** Which Potency does the source give for Cc1cccc(C(=O)NC(Oc2ccccc2)C(Cl)(Cl)Cl)c1 (stereo not drawn) here?
**A.** The Potency was inconclusive [activator, single point].

**Q.** Which Potency does the source give for O=C(COc1ccc2ccccc2c1)N1CCN(CC2CC3C=CC2C3)CC1 (stereo not drawn) here?
**A.** Its Potency is inconclusive [activator, partial curve, poor fit].

**Q.** For Cc1cccc(NP(=O)(Oc2ccccc2)Oc2ccccc2)c1C, which Potency is on record?
**A.** The Potency was inconclusive [activator, single point].

**Q.** With CO[C@H]1CC=C2CCN3CCC4=C(CC(=O)OC4)[C@]23C1 as the compound, how does the Potency read?
**A.** Its Potency is inconclusive [activator, single point].

**Q.** Which “activity, positive = re-replication” value does the source give for COc1ccc2cc1Oc1ccc(cc1)C[C@H]1c3cc(c(OC)cc3CCN1C)Oc1c(OC)c(OC)cc3c1[C@@H](C2)N(C)CC3 here?
**A.** The value was inactive: -12.8%.

**Q.** For OC[C@H]1O[C@@H](n2cnc3cc(Cl)c(Cl)cc32)[C@H](O)[C@@H]1O, which Potency is on record?
**A.** The Potency was inconclusive [activator, single point].

**Q.** With O=c1c2cc(Cl)cc(Cl)c2nc(CN2CCOCC2)n1-c1ccccc1F as the compound, how does the “activity, positive = re-replication” value read?
**A.** Its value is inactive: 10.1%.

**Q.** With CCCCN1CCS(=O)(=O)N(Cc2ccccc2Br)CC(C(=O)OC)C1 (stereo not drawn) as the compound, how does the Potency read?
**A.** The Potency was inconclusive [activator, single point].

**Q.** Which Potency does the source give for Cc1c(C=O)c2ccccc2n1Cc1cccc(F)c1 here?
**A.** Its Potency is inconclusive [activator, single point].

**Q.** Which “activity, positive = re-replication” value does the source give for CSc1ccc(CN2CCN(C(=O)COc3cccc(C)c3)CC2)cc1 here?
**A.** The value was inactive: -2.82%.

**Q.** With COc1ccccc1NC(=O)COC(=O)c1cc(C)n(C2CC2)c1C as the compound, how does the “activity, positive = re-replication” value read?
**A.** Its value is inactive: 21.3%.

**Q.** Which Potency does the source give for NCCNc1ccc([N+](=O)[O-])c2cccnc12 here?
**A.** Its Potency is active: 0.651 µM.

**Q.** Which “activity, positive = re-replication” value does the source give for O=c1[nH]c(=O)n(-c2ccccc2F)c(O)c1/C=C1\C=Nc2ccccc21 here?
**A.** The value was inactive: 0.665%.

**Q.** Which Potency does the source give for CC(=O)O[C@@H]1/C=C/[C@](C)(O)C[C@@H](C)C/C=C/[C@H]2[C@H](O)C(C)=C(C)[C@H]3[C@H](Cc4ccccc4)NC(=O)[C@@]123 here?
**A.** Its Potency is inconclusive [activator, partial curve, poor fit].

**Q.** For CCOC(=O)C1(CCCc2ccccc2)CCN(C2CCCC2)CC1, which Potency is on record?
**A.** The Potency was inconclusive [activator, partial curve, poor fit].

**Q.** With O=C1NC(=O)C(=Cc2ccc(Sc3ccccc3)o2)C(=O)N1 as the compound, how does the Potency read?
**A.** Its Potency is inconclusive [activator, single point].

**Q.** For C/C=C1/CC(C)C(C)(O)C(=O)OCC2CCN3CCC(OC1=O)C23 (stereo not drawn), which Potency is on record?
**A.** The Potency was inconclusive [activator, single point].

**Q.** For COP(=O)(OC)c1nc(-c2cccc3ccccc23)oc1NCCc1ccccc1, which Potency is on record?
**A.** The Potency was active: 20.6 µM.

**Q.** Which Potency does the source give for Cc1ccc(S(=O)(=O)NN=Cc2cc(Cl)ccc2O)cc1 here?
**A.** The Potency was inconclusive [activator, single point].

**Q.** With COc1ccc(C2=CC(c3ccc(OC)c(OC)c3)c3c(c4ccccc4oc3=O)O2)cc1OC (stereo not drawn) as the compound, how does the Potency read?
**A.** The Potency was active: 2.91 µM.

**Q.** Which “activity, positive = re-replication” value does the source give for CCCCC(=O)N/N=C/c1c(O)n(CC)c(=S)[nH]c1=O here?
**A.** The value was inactive: 20.8%.

**Q.** Which Potency does the source give for CCN1C(=O)/C(=C/c2ccc(N(CC)CC)cc2OC)C(=O)NC1=S here?
**A.** The Potency was inconclusive [activator, single point].

**Q.** For C[C@]12CCC(=O)C=C1CC[C@@H]1[C@@H]2C(=O)C[C@]2(C)C(=O)CC[C@@H]12, which Potency is on record?
**A.** Its Potency is inconclusive [activator, partial curve].

**Q.** With CC(C)C[C@H]1CNC(=S)N1CC1CCN(CC2CCC(C(C)(C)C)CC2)CC1 (stereo partly drawn) as the compound, how does the Potency read?
**A.** Its Potency is inconclusive [activator, partial curve].

**Q.** For CC(=NNC(=S)N1CC2CCC(CC2)C1)c1nccs1, which Potency is on record?
**A.** The Potency was inconclusive [activator, full curve, poor fit].

**Q.** Which Potency does the source give for COc1cc(Cn2c(N)c(C(=O)NCc3ccco3)c3nc4ccccc4nc32)cc(OC)c1OC here?
**A.** The Potency was active: 2.31 µM.

**Q.** For Cc1cc(OCC(=O)N2CCC(C(=O)O)(c3ccccc3)CC2)c2c(C)cc(=O)oc2c1, which Potency is on record?
**A.** Its Potency is inconclusive [activator, full curve, poor fit].

**Q.** For COC(=O)[C@]1(C)N[C@H](CN(C)S(=O)(=O)c2ccc(-c3ccccc3)cc2)[C@@H]2C(=O)N(Cc3ccccc3)C(=O)[C@@H]21, which Potency is on record?
**A.** Its Potency is inconclusive [activator, full curve, poor fit].

**Q.** With Cc1ccc2c(c1)C1CN(C)CCC1N2C(=O)c1cccs1 (stereo not drawn) as the compound, how does the “activity, positive = re-replication” value read?
**A.** Its value is inactive: -4.16%.

**Q.** With COc1cc(C2c3cc4c(cc3CC3COC(=O)C32)OCO4)cc(OC)c1O (stereo not drawn) as the compound, how does the Potency read?
**A.** The Potency was inconclusive [activator, full curve, poor fit].

**Q.** Which Potency does the source give for O=C1C=CC(=O)C2C1C1(Cl)C(Cl)=C(Cl)C2(Cl)C1(Cl)Cl (stereo not drawn) here?
**A.** The Potency was inconclusive [activator, single point].

**Q.** Which Potency does the source give for CC(CCN1CC1)=NNC(=O)Nc1cccc2ccccc12 here?
**A.** Its Potency is inconclusive [activator, single point].

**Q.** Which “activity, positive = re-replication” value does the source give for COC(=O)C1=C(c2cc3ccccc3o2)C[C@@H]2CC[C@H]1N2C(=O)N1CCCC1 here?
**A.** Its value is inactive: -8.26%.

**Q.** Which Potency does the source give for Clc1ccc(CNCCc2ccc3c(c2)OCO3)cc1 here?
**A.** Its Potency is inconclusive [activator, partial curve, poor fit].

**Q.** Which Potency does the source give for CC(C)(C)OC(=O)c1c(N)n(Cc2ccco2)c2nc3ccccc3nc12 here?
**A.** Its Potency is inconclusive [activator, single point].

**Q.** For O=C1NC(=O)C(=Cc2ccc(-c3ccccc3[N+](=O)[O-])o2)C(=O)N1, which Potency is on record?
**A.** Its Potency is inconclusive [activator, partial curve, poor fit].

**Q.** Which Potency does the source give for CC(c1ccccc1)[n+]1ccccc1 (stereo not drawn) here?
**A.** Its Potency is inconclusive [activator, full curve, poor fit].

**Q.** Which Potency does the source give for Cc1cc(/C=C2\C(=O)NC(=O)N(C)C2=O)c(C)n1-c1ccc2c(c1)OCO2 here?
**A.** The Potency was inconclusive [activator, single point].

**Q.** With c1ccc2nc(OCCN3CC3)ccc2c1 as the compound, how does the Potency read?
**A.** Its Potency is inconclusive [activator, single point].

**Q.** For Cc1cc(OC(=O)N(C)C)nc(-c2ccc(C)c(Cl)c2)n1, which “activity, positive = re-replication” value is on record?
**A.** Its value is inactive: 26%.

**Q.** For COC(=O)C1=C(c2ccc(F)cc2F)C[C@@H]2CC[C@H]1N2C(=O)NCCOc1ccccc1, which Potency is on record?
**A.** The Potency was inconclusive [activator, single point].

**Q.** For Cc1cccc(OP(=O)(Oc2ccccc2)OC(c2ccccc2)C(F)(F)F)c1 (stereo not drawn), which Potency is on record?
**A.** The Potency was inconclusive [activator, single point].

**Q.** With CCN(c1ccccc1)S(=O)(=O)c1ccc(C(=O)NCC(c2ccccc2OC)N2CCCC2)cc1 (stereo not drawn) as the compound, how does the Potency read?
**A.** Its Potency is inconclusive [activator, single point].

**Q.** For COC(=O)C1=C(c2cc3ccccc3s2)C[C@@H]2CC[C@H]1N2C(=O)N1CCCC1, which Potency is on record?
**A.** Its Potency is inconclusive [activator, full curve, poor fit].

**Q.** For COC1/C=C/C=C(\C)Cc2cc(O)c(Cl)c(c2)N(C)C(=O)CC(OC(=O)C(C)C)C2(C)OC2C(C)C2CC1(O)NC(=O)O2 (stereo not drawn), which activity, positive = re-replication is on record?
**A.** Its activity, positive = re-replication is inconclusive: 73.9% [activator].

**Q.** With CCOc1ccc(NC(=O)C2C(C(=O)O)C3(Cl)C(Cl)=C(Cl)C2(Cl)C3(Cl)Cl)cc1 (stereo not drawn) as the compound, how does the Potency read?
**A.** The Potency was inconclusive [activator, full curve, poor fit].

**Q.** Which Potency does the source give for O=C(Nc1nc2ccccc2n1CCN1CCCC1)c1ccc(Cl)cc1 here?
**A.** Its Potency is inconclusive [activator, single point].

**Q.** For O=C(COc1ccccc1/C=C1/NC(=O)NC1=O)Nc1ccccc1, which Potency is on record?
**A.** The Potency was inconclusive [activator, single point].
